Test results from PubChem BioAssay AID463173 (ICCB-Longwood Screening Facility, Harvard Medical School, 2010).
In all, about 52,000 compounds went through this assay and about 4,300 (8.3%) were called active. No stated cut-off is given here; in the data, active means survival mostly below about 52% (no sharp cut-off); inactive means mostly above about 56%. The list shows a part of the results.

test system: DeltatarO mutant; experiment: S. aureus survival, RN4220 and DeltatarO strains – OD600, teichoic acid synthesis inhibitors, primary screen (AID 463173); details: S. aureus RN4220 wild type/DeltatarO growth, OD600, 18 h, hits give low values, screened at 18.75 µg/mL (by protocol)

Row | SMILES | survival
1 | CCc1ccc(NCc2cc3cc(OC)c(OC)cc3n(CC(=O)Nc3ccc(F)cc3)c2=O)cc1 | inactive: 70%
2 | CC(C)(C)C(=O)Nc1ccc2nc(SCc3ccccc3)sc2c1 | inactive: 70%
3 | CC1=C(c2ccc(F)cc2)S(=O)(=O)NC1=NCc1ccccc1Cl | inactive: 107%
4 | COc1ccc2cc(CNc3ccccc3)c(=O)n(CC(=O)Nc3ccc(C(C)=O)cc3)c2c1 | inactive: 68%
5 | Cc1ccccc1C(=O)NC(=O)Nc1ccc(-n2nc(C(F)(F)F)cc2C(F)(F)F)cc1 | inactive: 69%
6 | COc1cccc(CNC(=O)CCn2c(=O)c3cccn3c3cccnc32)c1 | inactive: 82%
7 | CCC(=O)N1CCc2cc(S(=O)(=O)NC(Cc3ccccc3)C(=O)NCc3cccc(OC)c3)ccc21 (configuration not stated) | inactive: 64%
8 | COc1ccc(-c2cn3nc(N4CCCC(C(=O)NCCCOC(C)C)C4)sc3n2)cc1 (configuration not stated) | inactive: 69%
9 | NCC1Cc2ccccc2O1 (configuration not stated) | inactive: 103%
10 | Cc1ccc2c(c1)c1c(c(=O)n(-c3ccccc3C)c(=O)n1Cc1cccc(F)c1)n2C | inactive: 104%
11 | Cc1ccc(Cl)cc1NC(=O)C(NS(=O)(=O)c1ccc2c(c1)CCC(=O)N2)c1ccccc1 (configuration not stated) | inactive: 71%
12 | CC1=C(C(=O)Nc2ccc(C)cc2C)C(c2cccs2)n2nc(SCc3ccc(Cl)cc3)nc2N1 (configuration not stated) | inactive: 88%
13 | Cc1cc(Oc2nc3ccccn3c(=O)c2/C=C(\C#N)c2nc3ccccc3s2)ccc1Cl | inactive: 63%
14 | COc1ccc(-c2csc3ncnc(Nc4cccc(F)c4)c23)cc1 | active: 0%
15 | CC(=O)c1ccc(NC(=O)CC2Sc3ccccc3NC2=O)cc1 (configuration not stated) | inactive: 55%
16 | Cc1ccc(CSc2nc3cccnc3n2Cc2ccc(C(=O)NCc3cccs3)cc2)cc1 | inactive: 73%
17 | Cc1ccc(Nc2nc(C(N)=O)c(NC(=O)c3ccccc3Br)s2)cc1 | inactive: 78%
18 | Cc1ccc(NC(=O)C2CCN(C(=O)c3cnn(-c4ccccc4)c3-n3cccc3)CC2)cc1Cl | inactive: 61%
19 | CCCN(CCC)c1cc(C)nc2nc(-c3ccc(Cl)cc3)nn12 | inactive: 52%
20 | Cc1ccc(C(=O)CSc2nc(-c3ccccc3)nc3c2CCCC3)cc1C | active: 15%
21 | COc1ccc(-n2nnnc2SCC(=O)N2CCCCC2C)cc1 (configuration not stated) | inactive: 92%
22 | CCOC(=O)c1ccc(NC(=O)c2sc3nc4n(c(=O)c3c2C)CCC4)cc1 | inactive: 116%

Row | SMILES | survival
23 | CCN1C(C(=O)c2ccccc2)=C(NC(=O)c2ccc(Cl)cc2)c2ccccc2S1(=O)=O | inactive: 91%
24 | O=C(NCc1ccccc1)N(Cc1cccnc1)Cc1cc2cc3c(cc2[nH]c1=O)OCCO3 | inactive: 104%
25 | CC(CNC(=O)Cn1c(-c2cccs2)cc2cc(Cl)ccc21)c1ccccc1 (configuration not stated) | inactive: 83%
26 | ON(Cn1nnc2ccccc21)Cn1nnc2ccccc21 | inactive: 102%
27 | COCC(C)NS(=O)(=O)c1ccc(N2CCCCS2(=O)=O)cc1 (configuration not stated) | inactive: 87%
28 | COc1cccc(NC(=O)c2oc3ccccc3c2NC(=O)c2ccc(OC(C)C)cc2)c1 | inactive: 62%
29 | COc1ccc2c(CNCCc3ccco3)c(C(=O)O)n(Cc3ccc(F)cc3)c2c1 | inactive: 66%
30 | CCn1cc(C(=O)NCc2ccc(Cl)cc2)c(=O)c2cc(S(=O)(=O)N3CCc4ccccc4C3)ccc21 | inactive: 64%
31 | Cc1ccc2c(CC(=O)Nc3c(C(=O)c4ccc(F)cc4)oc4ccccc34)coc2c1C | inactive: 90%
32 | CC(C)c1ccc(NC(=O)C(Cc2ccccc2)n2cccc2)cc1 (configuration not stated) | active: 23%
33 | CCOc1ccc(NC(=O)Cn2c(=O)n(CC(=O)NCCc3ccccc3)c(=O)c3sccc32)cc1 | inactive: 71%
34 | Cc1ccc(C)c(S(=O)(=O)c2cn(Cc3ccccc3)c3cc(N4CCCC4)c(F)cc3c2=O)c1 | inactive: 97%
35 | CC(=O)N1CCCc2cc(S(=O)(=O)Nc3ccc(OC(F)(F)F)cc3)ccc21 | inactive: 79%
36 | Cc1ccc(-n2ccn(CC(=O)c3ccc(F)cc3)c(=O)c2=O)cc1C | inactive: 69%
37 | COc1cccc(C(=O)NCCc2sc(-c3cccc(C)c3)nc2C)c1 | inactive: 83%
38 | Cc1cccc(C)c1NC(=O)c1cc(S(=O)(=O)N2CCCc3ccccc32)ccc1F | inactive: 125%
39 | COc1ccccc1C(=O)Nc1ccccc1C(=O)OCc1cc(=O)n2c(C)csc2n1 | inactive: 126%
40 | COC(=O)c1ccc(NC(=O)CC2C(=O)N(c3cccc(C)c3)C(=O)N2Cc2ccco2)cc1 (configuration not stated) | inactive: 92%
41 | CCOC(=O)c1c(C)oc2nc(C)nc(NCCCN3CCN(c4ccccc4OC)CC3)c12 | inactive: 81%
42 | Cc1nn(C)c2c1c(-c1ccccc1)cc(=O)n2Cc1ccc(Br)cc1F | inactive: 94%
43 | O=C(c1cc2ccccc2oc1=O)N1CCCC1 | inactive: 101%
44 | COc1cccc(C(=O)Nc2nc3nc(C)c(Cc4ccccc4)c(=O)n3[nH]2)c1 | inactive: 104%

Row | SMILES | survival
45 | COc1ccccc1NC(=O)C1=C(C)NC2=C(C(=O)CCC2)C1c1cc2c(cc1Br)OCO2 (configuration not stated) | active: 44%
46 | Cc1cccc(N2C(=O)C(CC(=O)Nc3ccccc3)N(C3CCCCC3)C2=O)c1 (configuration not stated) | inactive: 80%
47 | CCOC(=O)c1c(C)[nH]c(C)c1S(=O)(=O)N(C)CC(=O)N1CCN(c2cccc(C)c2C)CC1 | inactive: 84%
48 | COc1cccc(CNC(=O)C2CCCN(S(=O)(=O)c3ccc4c(ccn4C)c3)C2)c1OC (configuration not stated) | inactive: 101%
49 | O=C(Cn1c(=O)n(CCCS(=O)(=O)C2CCCCC2)c(=O)c2ccccc21)Nc1ccccc1F | inactive: 83%
50 | Cc1nn2c3c(cnc2c1-c1ccc(F)cc1)C(=O)CC(c1ccccc1)C3 (configuration not stated) | inactive: 66%
51 | Cc1cc(C(=O)Nc2cccc(C(F)(F)F)c2)c2c(C)nn(-c3cccc(F)c3)c2n1 | active: 17%
52 | O=S(=O)(NCCc1csc2nc(-c3ccc(F)cc3)nn12)c1ccc2c(c1)OCCO2 | inactive: 119%
53 | CC(=O)Nc1ccc(NC(=O)CC(C)n2ccc(C)n2)cc1 (configuration not stated) | active: 52%
54 | CCCN1CCN(CCNC(=O)Nc2cc(Cl)c(OC)cc2OC)CC1 | inactive: 69%
55 | Cc1cc(C)c(-c2csc(-c3cc4ccccc4oc3=O)n2)cc1C | active: 31%
56 | Cc1ccc(OCC(=O)N(Cc2ccc(N(C)C)cc2)CC2CCCO2)cc1C (configuration not stated) | inactive: 59%
57 | COc1ccc(-c2cc(C(F)(F)F)nc(SCC(=O)N3CCCCC3)n2)cc1 | inactive: 74%
58 | O=C(c1cccc([N+](=O)[O-])c1)N1c2nc(-c3ccco3)nn2C2(CCCCC2)[C@@H]2CCCC[C@@H]21 | inactive: 54%
59 | CCCCOc1ccc(NC(=O)c2cc3c(n(-c4ccc(Cl)cc4)c2=O)CCCC3=O)cc1 | inactive: 131%
60 | Cc1ccc(CNC(=O)CCCn2c(=O)c3ccccc3n(Cc3ccccc3Cl)c2=O)cc1 | inactive: 113%
61 | CC(=O)c1cccc(NC(=O)C2CCN(c3nnc(-n4cccc4)s3)CC2)c1 | inactive: 80%
62 | O=C1c2ccc(Oc3ccc4c(c3)C(=O)N(c3ncccn3)C4=O)cc2C(=O)N1c1ncccn1 | inactive: 86%
63 | Cc1cc2ccccc2nc1SCC(N)=O | inactive: 80%
64 | CCOC(=O)c1c(-c2ccccc2)oc2ccc(OCc3ccc(C)cc3)cc12 | active: 30%
65 | Cc1ccccc1Cn1c(=O)n(CCCCC(=O)NCc2ccc3c(c2)OCO3)c(=O)c2ccccc21 | inactive: 78%
66 | Cc1cc2c(n1-c1ccc(C(=O)NCc3cccc(Br)c3)cc1)CCC(C)C2 (configuration not stated) | inactive: 125%

Row | SMILES | survival
67 | Cc1cccc(-c2nc3c4ccccc4n(CC(=O)Nc4cc(F)ccc4F)c(=O)n3n2)c1 | inactive: 75%
68 | Cc1ccc(N2C(=O)CSC23C(=O)Nc2ccccc23)cc1F (configuration not stated) | inactive: 101%
69 | O=C(Nc1nnc(N2CCCC2)s1)Nc1cc(F)ccc1F | inactive: 85%
70 | O=C(NCCc1ccccc1)c1c2c(nc3ccccc13)C(=O)N(C1CCCCC1)C2 | inactive: 92%
71 | CCCCNC(=O)c1c[nH]c2c(F)cccc2c1=O | inactive: 81%
72 | CC(C)Nc1cc(N2CCN(C3CCCCC3)CC2)c2noc3c2c1C(=O)c1ccccc1-3 | inactive: 83%
73 | COc1ccc(CCNc2nc(-c3ccccc3OC)cc(C(F)(F)F)n2)cc1OC | active: -8%
74 | COc1ccccc1N1CCN(C(=O)CSc2nc(C)cc(=O)[nH]2)CC1 | inactive: 74%
75 | O=C(NCc1ccncc1)Nc1ccccc1 | inactive: 109%
76 | O=C(c1ccc(Br)cc1)N1CCC(c2nc3ccccc3s2)CC1 | inactive: 99%
77 | CCOc1ccc(CNC(=O)C(C)n2ncn3cccc3c2=O)cc1 (configuration not stated) | inactive: 69%
78 | Cc1c(CN2CCOCC2)c(=O)n(-c2ccccc2)n1C | inactive: 87%
79 | CCOC(=O)c1[nH]c(C)c(CCC(=O)Nc2ccc(C)cc2Cl)c1C | inactive: 83%
80 | CCOc1ccccc1CNC(=O)C1=C(C)C(=O)OC12CCN(C(C)=O)CC2 | inactive: 80%
81 | CCOc1ccc(C(=O)Nc2c(C)nc(Nc3ccccc3)nc2Nc2ccccc2)cc1OCC | active: 49%
82 | COc1ccc(C(=O)Cn2c(=O)n3nc(CCn4nc(C)cc4C)nc3c3cc(OC)c(OC)cc32)cc1 | inactive: 107%
83 | COc1ccc(S(=O)(=O)Nc2c(C)n(C)n(-c3ccccc3)c2=O)cc1Br | inactive: 60%
84 | COc1ccc(C2(N3CCN(c4cc(C)ccc4C)CC3)C(=O)c3ccccc3C2=O)cc1 | inactive: 91%
85 | CCOc1ccccc1NC(=O)CSc1nc2cc(OC)c(OC)cc2c2nc(CCn3c(C)nc4ccccc43)nn12 | inactive: 66%
86 | CCCN(CCC)C(=O)Cn1c(SCc2cccc(F)c2)nc2cccnc21 | inactive: 66%
87 | N#Cc1cccc(NC(=O)C2CCN(S(=O)(=O)c3ccc4c(c3)CCCN4C(=O)C3CCC3)CC2)c1 | inactive: 98%
